Assay results from the supplement of paper PMC10126150.
Values marked as one replicate rest on one cluster of the flow cell; about a third of the high ones do not repeat.

System: ATP
Test: switch fluorescence ratio, 500 uM ATP over buffer (Cy3 cluster intensity, sum of 5 cycles each) (fold (ratio)); higher = stronger signal-on switching upon ATP binding; sequences stand for … in TCGTCGGCAGCGTCAGATGTGTATAAGAGACAGTTTTTTTTTTTTTTTTTTTTTTTTT…TC
Conditions: aptamer strand: ATP DNA aptamer (quencher-CACCTGGGGGAGTATTGCGGAGGAAGG + anchor), 100 nM annealed; ATP concentration: 500 uM; one replicate
Procedure, shortened: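 Values give the fluorescence ratio for each switch-domain sequence, averaged from per-cluster ratios of summed target-cycle to summed buffer-cycle Cy3 intensity. The Cy3-labelled switching-strand clusters sat on a modified Illumina MiSeq flow-cell, were annealed to 100 nM quencher-labelled ATP aptamer, and were imaged in selection buffer, then after 15 min with 500 uM ATP at 22 °C. Five cycles ran with NaOH stripping and re-annealing between them, and clusters outside 100-1000 RFU were excluded.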
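Further: ATP exposure 15 min at 22 °C before imaging.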

| Sequence | switch fluorescence ratio |
| --- | --- |
| TTGGTCCTCT | 0.991 |
| TTGGTCCTTA | 1.03 |
| TTGGTCTCG | 1.04 |
| TTGGTGCTTA | 1.08 |
| TTGGTGGTCG | 0.957 |
| TTGGTGTAGA | 1.07 |
| TTGGTTCAGG | 0.978 |
| TTGGTTCTA | 1.02 |
| TTGGTTGGCA | 1.01 |
| TTGTAAAAAG | 1.04 |
| TTGTAAACG | 1.01 |
| TTGTAGAAG | 0.99 |
| TTGTAGCACT | 1.06 |
| TTGTATAAAA | 0.963 |
| TTGTATATT | 0.955 |
| TTGTATTGCT | 1.01 |
| TTGTCAACGC | 1.06 |
| TTGTCACCAT | 0.984 |
| TTGTCATGGC | 0.995 |
| TTGTCCAGGC | 1 |
| TTGTCCAGGG | 1.23 |
| TTGTCGAACG | 1.05 |
| TTGTCGATAG | 1.1 |
| TTGTCGATTG | 1.01 |
| TTGTCGGCCC | 1.01 |

| Sequence | switch fluorescence ratio |
| --- | --- |
| TTGTCGGGAA | 0.948 |
| TTGTCGTCTA | 0.968 |
| TTGTGAAGGA | 0.999 |
| TTGTGATGCG | 1.04 |
| TTGTGCAGGA | 1.05 |
| TTGTGCCGCA | 1 |
| TTGTGCGCAT | 2.24 |
| TTGTGGAGGG | 1.04 |
| TTGTGGCAGT | 1.02 |
| TTGTGGGTGA | 1 |
| TTGTGGTTCA | 1.04 |
| TTGTGTCACA | 1.03 |
| TTGTGTGAAT | 1.01 |
| TTGTGTGACC | 0.972 |
| TTGTTAGTGT | 1.06 |
| TTGTTATCCA | 0.989 |
| TTGTTATGAA | 0.999 |
| TTGTTCGAAT | 0.987 |
| TTGTTCGCGA | 1.04 |
| TTGTTGAAAG | 0.953 |
| TTGTTGCAT | 1.03 |
| TTGTTGCCTT | 0.932 |
| TTGTTTCTAC | 1.04 |
| TTGTTTGCGT | 1.02 |
| TTGTTTTGCC | 0.948 |

| Sequence | switch fluorescence ratio |
| --- | --- |
| TTTAAAACCG | 1.03 |
| TTTAAAGCGT | 0.983 |
| TTTAAATGTC | 0.946 |
| TTTAACAAGT | 0.996 |
| TTTAACTGGG | 1.07 |
| TTTAAGAATG | 0.98 |
| TTTAAGAGGA | 1.03 |
| TTTAAGCATA | 1.68 |
| TTTAATAAAT | 1.02 |
| TTTAATGGAT | 1.01 |
| TTTACAAGGA | 1.02 |
| TTTACATTCA | 1.02 |
| TTTACCTCGC | 1.27 |
| TTTACCTGGT | 1.01 |
| TTTACGCGGA | 1.02 |
| TTTACGGCAG | 1.07 |
| TTTACTAGGG | 0.988 |
| TTTACTCTGA | 1.21 |
| TTTACTGAGC | 1.02 |
| TTTAGACTAC | 0.979 |
| TTTAGCCAAT | 1.09 |
| TTTAGCCGGA | 1.07 |
| TTTAGCGACC | 1.12 |
| TTTAGCTCT | 0.975 |
| TTTAGGAACA | 1 |

| Sequence | switch fluorescence ratio |
| --- | --- |
| TTTAGTATAT | 0.994 |
| TTTAGTGGAG | 1.02 |
| TTTAGTGGGA | 1 |
| TTTAGTGTTC | 0.997 |
| TTTATACAGT | 1.04 |
| TTTATCAACC | 1.03 |
| TTTATCCAGC | 1.03 |
| TTTATCCTGT | 1.01 |
| TTTATGAAA | 0.965 |
| TTTATGAGTA | 0.98 |
| TTTATGATTG | 1.03 |
| TTTATGTAGT | 1.04 |
| TTTATGTGGC | 1 |
| TTTATTAGCG | 1.02 |
| TTTATTGAAG | 1.01 |
| TTTCAATCAA | 1.11 |
| TTTCAATTAT | 0.994 |
| TTTCAGAAAA | 1.04 |
| TTTCAGGAGG | 1.01 |
| TTTCATACCG | 0.937 |
| TTTCATTCAT | 0.969 |
| TTTCATTTGA | 0.98 |
| TTTCCCTTGT | 1.11 |
| TTTCCGAGTT | 1.09 |
| TTTCCGTTCT | 1.05 |
